About 2,200 (0.71%) of roughly 310,000 compounds showed an effect of 50% or more. The effect is printed as a negative number. This is one part of the list.

In the test the target is human ether-à-go-go-related gene (hERG) potassium channel (human, UniProt Q12809). Kind of test: primary screen, population patch clamp on CHO cells stably expressing hERG.
Sequence of human ether-à-go-go-related gene (hERG) potassium channel (Q12809 whole entry, looked up): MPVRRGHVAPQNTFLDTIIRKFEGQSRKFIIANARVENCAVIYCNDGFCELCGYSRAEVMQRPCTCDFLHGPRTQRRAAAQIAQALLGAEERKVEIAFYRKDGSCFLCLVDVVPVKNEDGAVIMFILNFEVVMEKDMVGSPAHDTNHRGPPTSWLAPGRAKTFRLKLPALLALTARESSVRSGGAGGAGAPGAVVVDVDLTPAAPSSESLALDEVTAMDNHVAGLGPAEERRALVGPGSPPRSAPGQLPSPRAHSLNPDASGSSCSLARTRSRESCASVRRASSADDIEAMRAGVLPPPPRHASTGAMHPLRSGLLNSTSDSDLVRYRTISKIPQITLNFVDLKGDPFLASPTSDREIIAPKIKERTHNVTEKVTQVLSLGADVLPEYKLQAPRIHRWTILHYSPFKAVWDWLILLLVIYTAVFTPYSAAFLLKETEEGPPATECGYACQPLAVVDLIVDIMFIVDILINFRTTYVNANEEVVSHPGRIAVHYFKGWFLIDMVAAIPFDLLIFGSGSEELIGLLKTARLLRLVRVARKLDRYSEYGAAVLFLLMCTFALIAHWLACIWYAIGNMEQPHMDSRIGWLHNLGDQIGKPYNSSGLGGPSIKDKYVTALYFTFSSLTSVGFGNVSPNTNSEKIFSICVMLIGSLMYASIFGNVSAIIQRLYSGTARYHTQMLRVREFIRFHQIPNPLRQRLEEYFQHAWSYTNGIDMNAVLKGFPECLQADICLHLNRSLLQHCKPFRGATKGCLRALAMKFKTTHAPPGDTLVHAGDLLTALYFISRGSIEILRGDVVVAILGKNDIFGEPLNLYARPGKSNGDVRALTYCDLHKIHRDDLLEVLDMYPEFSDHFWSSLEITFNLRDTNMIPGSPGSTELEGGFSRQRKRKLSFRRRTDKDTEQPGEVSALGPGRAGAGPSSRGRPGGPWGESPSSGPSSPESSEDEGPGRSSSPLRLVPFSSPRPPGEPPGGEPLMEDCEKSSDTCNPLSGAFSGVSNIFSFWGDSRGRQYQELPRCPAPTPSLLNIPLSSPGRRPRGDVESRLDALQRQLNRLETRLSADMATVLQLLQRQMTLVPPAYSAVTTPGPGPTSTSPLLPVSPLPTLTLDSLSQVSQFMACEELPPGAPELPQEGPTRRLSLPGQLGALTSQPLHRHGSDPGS
For the compound `Cc1ccc(-c2nc3ccccc3o2)cc1NC(=S)NC(=O)c1cccs1`, the “hERG current change (%, negative = inhibition) at 1uM” value came out at 11.2%. The value for `O=C(N1CCOCC1)n1nnc2ccccc21` was 14.4%. The value for `CC(C)N(Cc1nccn1C)C(=O)CC1C(=O)NCCN1Cc1ccc(F)c(F)c1` (centres unmarked) was 12.3%; that for `O=C(NC(Cc1ccccc1)C(=O)O)/C(=C\c1ccc([N+](=O)[O-])cc1)NC(=O)c1ccco1` (centres unmarked) was 8.54%. The value for `O=C(CN1CCCCC1)N1CCc2ccccc21` was 5.5%; that for `CCCC[C@@H]1C[C@H]1[C@@H](NC(=O)c1ccco1)c1ccccc1C(F)(F)F` was 10.3%; that for `CC(=O)N1c2ccc(S(=O)(=O)N3CCOCC3)cc2CC1C` (centres unmarked) was 10.3%. With `COc1ccc(CNC(=O)C2CCCN(S(=O)(=O)c3ccc4c(c3)CCCN4C(C)=O)C2)cc1` (centres unmarked), the “hERG current change (%, negative = inhibition) at 1uM” value was 7.19%. For `O=C(Cc1ccccc1)NCCc1ccc(Cl)cc1Cl`, the “hERG current change (%, negative = inhibition) at 1uM” value is given as -9.38%. With `CCC1Oc2ccccc2N(CC(=O)Nc2ccc3c(c2)OCCO3)C1=O` (centres unmarked), the “hERG current change (%, negative = inhibition) at 1uM” value came to 9.15%. Take `COc1ccccc1S(=O)(=O)Cc1ccc(C(=O)NCC(OC)OC)o1`: the “hERG current change (%, negative = inhibition) at 1uM” value is recorded as 11.3%.

On to `O=C(O)c1ccccc1-c1ccccc1C(=O)Nc1ccccc1`, for which the “hERG current change (%, negative = inhibition) at 1uM” value turned out to be 10.8%. As for `Cc1nc(NS(=O)(=O)c2ccccc2)sc1C(=O)NNS(=O)(=O)c1ccccc1`, the “hERG current change (%, negative = inhibition) at 1uM” value was 13%. `COc1ccc(CC(=O)Nc2ccc3c(C(F)(F)F)cc(=O)oc3c2)cc1OC`: the “hERG current change (%, negative = inhibition) at 1uM” value came to 1.32%. Turning to `COc1cc(C(=O)Nc2ccc3nc4n(c(=O)c3c2)CCCCC4)cc(OC)c1OC`, the “hERG current change (%, negative = inhibition) at 1uM” value was -1.94%. Take `NC(=O)c1nsc(C(=O)N(Cc2ccc(F)cc2)C(C(=O)NC2CCCC2)c2ccco2)c1N` (centres unmarked): the “hERG current change (%, negative = inhibition) at 1uM” value is reported as -3.79%.

For `COc1ccc(NC(=O)Nc2cccc3cccnc23)cc1`, the “hERG current change (%, negative = inhibition) at 1uM” value worked out at 8.71%. For the compound `CCN1CCN(C(=O)Nc2ccc(OC)cc2OC)CC1`, the “hERG current change (%, negative = inhibition) at 1uM” value is listed as 3.01%.

For `COc1ccc([N+](=O)[O-])cc1Nc1c2ccccc2nc2ccccc12`, the “hERG current change (%, negative = inhibition) at 1uM” value is 14.9%. Then `CCOc1ccc(C2C(C(=O)OC)=CN(C(C)c3ccccc3)C=C2C(=O)OC)cc1` (centres unmarked), with 8.81%; and `CCN1CCN(C(c2cccs2)C(C)NS(=O)(=O)c2ccccc2)CC1` (centres unmarked), with 12.8%; and `CCSCc1nnc(SCC(=O)Nc2nc(C)cs2)n1C`, with -0.624%. `CN(C(=O)COC(=O)Cn1cnc2c1c(=O)n(C)c(=O)n2C)C1(C#N)CCCCC1`: the “hERG current change (%, negative = inhibition) at 1uM” value is recorded as 12%.

On to `O=C(O)COCC(=O)Nc1ccc(Oc2ncnc3cc(Cl)ccc23)nc1`, for which the “hERG current change (%, negative = inhibition) at 1uM” value is 14.5%. For `COC(=O)c1cccc(C23CC4(C2)[C@H](CN(Cc2ccc(-c5ccccc5)cc2)[C@@H]4c2ccccc2)C3c2ccc(Cl)nc2)c1` (some centres unmarked), the “hERG current change (%, negative = inhibition) at 1uM” value is recorded as -4.71%. On to `O=S(=O)(Nc1ccc(Cc2ccncc2)cc1)c1ccc(Cl)c(Cl)c1`, for which the “hERG current change (%, negative = inhibition) at 1uM” value is given as -9.03%. For the compound `CCC(=O)N1C(C(=O)NCc2ccc(OC)cc2)CSC1c1ccc(OC)cc1` (centres unmarked), the “hERG current change (%, negative = inhibition) at 1uM” value is recorded as 3.53%. Then `CC1CCC2C(C1)OS(=O)(=O)NC2(C)C` (centres unmarked), with 17.6%.

Regarding `CN(C)c1ccc(C(=O)NCc2ccc3c(c2)OCO3)cc1`, the “hERG current change (%, negative = inhibition) at 1uM” value is listed as 13.1%. On to `Cc1ccc(/C=C2/NC(=O)[C@H](C)NC2=O)cc1`, for which the “hERG current change (%, negative = inhibition) at 1uM” value is reported as 10.1%. For the compound `O=C1NC2=C(C(=O)CCC2)C(c2ccc3ncccc3c2)N1` (centres unmarked), the “hERG current change (%, negative = inhibition) at 1uM” value is recorded as -0.497%. The value for `COc1ccc(S(=O)(=O)N2CCN(C(=O)N3CCOCC3)C2C)cc1` (centres unmarked) was 11.2%; that for `Cl.O.O=C1CC(=C2c3ccccc3-c3ccccc32)C(=O)N1CCCCN1CCN(c2ccccc2)CC1` was 3.34%.

Take `Cc1ccc(N2CC(C(=O)NCCc3ccc(S(N)(=O)=O)cc3)CC2=O)cc1` (centres unmarked): the “hERG current change (%, negative = inhibition) at 1uM” value was 16.1%.

As to `Cc1cc(C)c(NC(=O)/C(=C/c2ccccc2)c2ccccc2)c(C)c1`, the “hERG current change (%, negative = inhibition) at 1uM” value came to 9.35%. The value for `CCN(CC)S(=O)(=O)c1ccc(C(=O)Nc2ccc3c(c2)OCO3)cc1` was 6.7%; that for `Cc1ccc(S(=O)(=O)N(C)c2ccc(OCC(=O)NC3=NCCS3)cc2)cc1` was 4.66%. As to `O=C1CC(C(=O)Nc2ccccc2C(=O)O)C(c2ccccc2)O1` (centres unmarked), the “hERG current change (%, negative = inhibition) at 1uM” value worked out at 6.56%. Regarding `COc1cc(CNCCCN2CCOCC2)cc(Br)c1OCC(=O)N1CCCCC1.Cl`, the “hERG current change (%, negative = inhibition) at 1uM” value came out at 11.5%. Consider `O=C1CCC(C(=O)Nc2ccccc2N2CCOCC2)=NN1`, for which the “hERG current change (%, negative = inhibition) at 1uM” value turned out to be 14.9%. The value for `CC1(C)Cc2c(C#N)c(SCc3nc4ccccc4[nH]3)nc(N3CCOCC3)c2CO1` was 11.2%; that for `Nc1c(C(=O)NCc2ccco2)nnn1Cc1ccccc1` was 17.2%. Consider `CCC(C)(C)NC(=O)Cc1ccc(F)cc1`, for which the “hERG current change (%, negative = inhibition) at 1uM” value was determined as 23.4%. For `COc1ccc(S(=O)(=O)NCc2ccncc2)cc1OC`, the “hERG current change (%, negative = inhibition) at 1uM” value is -0.893%.

Source of the values: paper PMC4336329 (PLoS ONE, 2015).
